From ChEMBL document CHEMBL1201862, “PubChem BioAssay data set” (2004) come the findings set out here.

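Step 1: Grow cells in 96-well plates. Step 2: Expose to compound for 48 hours at 5 concentrations. Step 3: Interpolate endpoints linearly; if unreached, use highest concentration. Here, GI50 denotes the concentration required for 50% inhibition of growth.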 Calls of active or inactive are those of the source. No stated cut-off is given here; in the data, active = GI50 up to about 1.1 µM and inactive = higher.

For the assay, the system named is NCI-H322M. Nature of the assay: DTP human tumour cell line panel, 48 h.
Regarding `Fc1ccccc1-c1cc(S)c2cc3c(cc2n1)OCO3`, the GI50 is inactive: 5.71 µM. `N/C(=N\O)N/N=C/c1ccc(C(F)(F)F)cc1`: the GI50 was inactive: 5.43 µM. Turning to `Cl/C(=N\c1cccc2ccccc12)N(c1ccccc1)c1ccccc1`, the GI50 was inactive: > 100 µM.

Regarding `O=[N+]([O-])c1ccccc1OCCOc1ccccc1[N+](=O)[O-]`, the GI50 was inactive: > 100 µM. For `COc1cc(C2SCC(=O)N2Cc2ccccc2)cc(OC)c1OC` (configuration not stated), the GI50 was inactive: > 100 µM. `CS(=O)(=O)Nc1ccc(Nc2c3ccccc3nc3ccccc23)cc1`: the GI50 was inactive: 5.86 µM. For `COC(=O)C(=O)C(C(=O)C(=O)Nc1cccc(C(C)=O)c1)c1nc2ccc([N+](=O)[O-])cc2nc1O` (configuration not stated), the GI50 is inactive: > 100 µM. With `O=C(O)C(Oc1nc(S)nc(S)n1)(c1ccc(Cl)cc1)c1ccc(Cl)cc1`, the GI50 was inactive: > 100 µM. Regarding `O=C(O)c1cc(O)nc(SCc2ccccc2)n1`, the GI50 is inactive: > 100 µM. Turning to `C=CCn1c(=S)sc2c(O)ncnc21`, the GI50 was inactive: > 100 µM. For `COc1nc(OC)nc(-c2cccc(F)c2)n1`, the GI50 was inactive: 19.3 µM. In the case of `CCCCOC(=O)N[C@H]1CCc2cc(OC)c(OC)c(OC)c2-c2ccc(SC)c(=O)cc21`, the concentration for 50% growth inhibition (GI50) was active: < 0.01 µM. As for `O=C(Nc1nc2ccc([N+](=O)[O-])cc2s1)c1cc([N+](=O)[O-])ccc1Cl`, the GI50 is inactive: 2.75 µM. The same measure for `CCOC(=O)C(C(=S)Nc1ccccc1)c1nn2c(=O)cc(C)nc2s1` (configuration not stated): inactive: 21.6 µM. On to `Cc1ccc(/C=N/Nc2cc(C)c3cccc(C)c3n2)s1`, for which the GI50 is inactive: 1.76 µM. On to `CN(C)CC/C(=N\Nc1c(Cl)cccc1Cl)c1ccccc1`, for which the GI50 is inactive: > 10 µM. For `O=C1C(=O)N(c2cccc(C(F)(F)F)c2)C(=S)N1c1ccccc1`, the GI50 is inactive: 42.7 µM. As for `C=C1CC(CNc2cc(Cl)nc(N)n2)C1`, the GI50 is inactive: > 100 µM. The same measure for `CC1(C)OC(=O)C(=C2CC(c3ccccc3)c3ccccc32)C(=O)O1` (configuration not stated): inactive: > 100 µM; for `O=C(Cc1ccc([N+](=O)[O-])cc1)OCC#CCOC(=O)Cc1ccc([N+](=O)[O-])cc1`: inactive: > 10 µM; for `CCC1(O)CN(CCOC)[C@H]2C[C@@H]1C(=O)c1[nH]c3ccccc3c12` (some centres not stated): inactive: > 100 µM.

As to `O=C1c2c(c3c4ccccc4n(CC4CO4)c3c3[nH]c4ccccc4c23)C(=O)N1Cc1ccccc1` (configuration not stated), the GI50 is inactive: > 100 µM. The result for `Cc1c(C(=O)O)n2c(S)nnc2c2ccccc12` reads inactive: > 100 µM; that for `COC(=O)[C@@H]1CN(C(=O)CCc2ccccc2)C(=O)N1`, inactive: > 100 µM; that for `COC(=O)C1(c2cc3ccccc3n2S(=O)(=O)c2ccccc2)CC2C=CC1NC2` (configuration not stated), inactive: 2.98 µM.

Regarding `NCCN1C(=O)CN=C(c2ccc(Cl)cc2)c2cc(Cl)ccc21`, the GI50 was inactive: 18.1 µM. The same measure for `Nc1nc(Cl)c(CO)c(NCC2(CO)CCC2)n1`: inactive: > 100 µM; for `COC(=O)CCc1cc(OC)c2oc(-c3ccc(OC)c(OC)c3)c(CO)c2c1`: inactive: > 100 µM. With `Cc1cc(N(CCC#N)CCC#N)ccc1/N=N/c1ccc([N+](=O)[O-])cc1`, the GI50 was inactive: > 100 µM. The result for `CO/C(=N\N=C\c1ccc(Cl)cc1)c1ccncc1` reads inactive: > 100 µM; that for `COc1ccc2[nH]cc(/C=C(/C)c3ccncc3)c2c1`, inactive: 41.3 µM. As for `NCCCNCCSSC/C=C\CSSCCNCCCN`, the GI50 was inactive: 93.5 µM. For the compound `CC(C)=CC(=O)C[C@H]1C(=O)O[C@@H]2C[C@H]3C(C)=CC(=O)[C@@H](O)[C@]3(C)[C@H]3[C@@]4(O)OC[C@]32[C@@H]1[C@@H](C)[C@H]4O`, the concentration for 50% growth inhibition (GI50) is active: 0.406 µM. For the compound `C/C(=N/NC(=S)N1CCCCCC1)c1cccc(/C(C)=N\NC(=S)N2CCCCCC2)n1`, the GI50 was inactive: 1.35 µM. In the case of `COc1ccc(Nc2ccc3ccccc3c2-c2c(O)ccc3ccccc23)cc1`, the GI50 is inactive: 15.4 µM.

`Oc1c(Br)cc(/C=C/c2ccnc(/C=C/c3cc(Br)c(O)c(Br)c3)c2)cc1Br`: the GI50 is inactive: 30.3 µM. With `Cc1c(-c2ccccc2)oc(=O)c2ccccc12`, the GI50 is inactive: 25.4 µM.

In the case of `COC(=O)c1cc2c(cc1CC1Cc3cc4c(cc3C1)CCC4)CCC2`, the GI50 is inactive: 67.1 µM.

For `O=c1oc2c3ccc4ccccc4c3n(Cc3nc4ccccc4[nH]3)c2c2ccccc12`, the GI50 is inactive: 11.8 µM. The result for `COC(=O)NC1C(C)OC(OC2C/C=C(/C)C3C=CC4C(OC5CC(OC6CC(O)C(OC7CC(O)C(OC)C(C)O7)C(C)O6)C(O)C(C)O5)C(C)CC(C)C4C3(C)C(=O)C3=C(O)C4(CC(C)C(CO)=CC4/C=C\2C)OC3=O)CC1(C)[N+](=O)[O-]` (configuration not stated) reads inactive: 7.48 µM; that for `O=C1/C(=C/c2ccco2)N=C2Sc3c([nH]cnc3=O)N12`, inactive: > 100 µM. For `CCN(CC)c1ccc(/N=C2\C=C(Cl)C(=O)c3ncccc32)c(C)c1`, the GI50 was inactive: 20.1 µM.

Regarding `N/N=c1/nc2n(c3ncccc13)C=CNN2`, the GI50 was inactive: > 100 µM.

For the compound `O=C1c2cccc3cccc(c23)C(=O)N1CCCN1CCN(CCCN2C(=O)c3cccc4cccc(c34)C2=O)CC1`, the GI50 is inactive: > 100 µM. Regarding `S=C1NCCN1C(=S)Nc1ccccc1`, the GI50 is inactive: > 100 µM.

Take `O=C(Nc1ccc(Cl)c(C(F)(F)F)c1)C(=O)c1c(O)c2ccccc2oc1=O`: the GI50 is inactive: > 100 µM. In the case of `CCOC(=O)C1C(C(C)C)C2(C#N)C(=N)OC1(C)C2(C#N)C#N` (configuration not stated), the GI50 is inactive: > 100 µM.

With `NC(=O)C(Nc1ccc(Cl)cc1)c1cc2cc(Br)ccc2nc1Cl` (configuration not stated), the GI50 is inactive: > 50 µM. Take `O=c1cnn(C2OC(C(O)CO)C(O)C2O)c(=O)[nH]1` (configuration not stated): the GI50 is inactive: > 100 µM. As for `CC(C(=O)n1c2ccccc2c2ccccc21)N(c1ccccc1)c1ccccc1` (configuration not stated), the GI50 was inactive: 17.3 µM. Turning to `C=CCn1cc(C(=O)NC(=O)NCCCCCOC(=O)CCCCCCCCCCC(=O)OCCCCCNC(=O)NC(=O)c2cn(CC=C)c(=O)n(C)c2=O)c(=O)n(C)c1=O`, the GI50 was inactive: > 100 µM.

As for `COc1cc(OC)c(OC)cc1/C=C/c1cc[n+](C)c2ccccc12`, the GI50 is inactive: 21.9 µM. The result for `COc1ccc(/C=N/n2c(Cc3ccc(Cl)cc3)n[nH]c2=O)cc1` reads inactive: 28.4 µM; that for `O=C(NC1CCCC1=O)c1ccccc1` (configuration not stated), inactive: > 100 µM; that for `N#CCCN(c1ccc(/C=N/c2ccccc2Cl)cc1)S(=O)(=O)c1ccccc1`, inactive: > 100 µM. The same measure for `Cc1cc2nc(-c3c(F)cccc3F)n(Cc3c(F)cccc3F)c2cc1C`: inactive: 21.7 µM; for `CCCCC1(C)C=C/C(=C2/C(=O)O/C(=C\C(=O)O)C2=O)O1` (configuration not stated): inactive: > 100 µM.

Turning to `CN(C)C(=S)SN(C)C(=O)Nc1ccccc1`, the GI50 is inactive: 42.8 µM.

For the compound `Nc1ccc2nc(Nc3ccc(Cl)c(Cl)c3)cnc2c1`, the GI50 was inactive: 23.2 µM. For `FC(F)(F)c1ccc(C2SCc3nc4ccccc4n32)cc1` (configuration not stated), the GI50 was inactive: > 100 µM. Take `COc1cccc(C(=O)N2CCc3ccccc32)c1OC`: the GI50 is inactive: 90.2 µM. With `COC(=O)c1c(C(=O)OC)c2c3ccccc3n(C)c2c2c1c1ccccc1n2C`, the GI50 is inactive: > 100 µM.

As for `NCCCCNOCCCN`, the GI50 was inactive: > 100 µM. As for `CCCNc1[nH]c(C(C)=O)c(N)c1C(=S)Nc1ccccc1`, the GI50 is inactive: 53.5 µM. In the case of `O=c1[nH][nH]c(=O)n1CCCCCCn1c(=O)[nH][nH]c1=O`, the GI50 is inactive: > 100 µM. With `CN1CCN2c3ccccc3CC(C#N)(C#N)C2C1` (configuration not stated), the GI50 was inactive: > 100 µM. Regarding `O=C1c2ccncc2C(=O)c2c(O)ccc(O)c21`, the GI50 is inactive: 28.4 µM. For the compound `CC(=O)O[C@H]1CC[C@@]2(C)C(=CC[C@@H]3[C@@H]2CC[C@]2(C)Nc4c(cnn4S(C)(=O)=O)C[C@@H]32)C1`, the GI50 is inactive: > 100 µM. The same measure for `Cc1c2ccccc2c(=O)n2c(-c3ccccn3)cccc12`: inactive: 31.8 µM. With `COc1cc(OC(=O)c2ccccc2)cc2c1C(=O)C=CC2=O`, the GI50 is inactive: 20.3 µM. For `Fc1cccc(F)c1C1SCc2nc3ccc(Cl)cc3n21` (configuration not stated), the GI50 was inactive: > 100 µM. In the case of `COc1ccc(Nc2[nH]c(C(C)=O)c(N)c2C(=S)Nc2ccccc2)cc1`, the GI50 is inactive: 65.3 µM. The same measure for `CC(=O)NC1C(OCc2ccccc2)OC(COC(=O)CCCCCCCCCCNc2ccc([N+](=O)[O-])c3[nH]c4ccccc4c(=O)c23)C(O)C1OC(C)C(=O)NC(C)C(=O)NC(CCC(N)=O)C(=O)OCc1ccccc1` (configuration not stated): inactive: > 100 µM; for `Cc1ccc(Nc2sc(C)cc2C#N)c([N+](=O)[O-])c1`: inactive: > 100 µM.

`c1ccc([B-]23Oc4ccccc4[NH+]2c2ccccc2O3)cc1` (configuration not stated): the GI50 was inactive: > 100 µM. For the compound `CC1C(=O)O[C@H]2C1CC[C@@]1(C)[C@H](O)CC[C@@]13C[C@]2(O)OO3` (some centres not stated), the GI50 is inactive: > 100 µM. For the compound `COc1cc(C2c3cc4c(cc3[C@@H](OCCN)[C@H]3COC(=O)C23)OCO4)cc(OC)c1O` (some centres not stated), the GI50 is inactive: 2.43 µM. In the case of `CC1C[C@@]2(c3ccccc3)C(=O)CCC[C@H]2N1` (some centres not stated), the GI50 is inactive: > 100 µM.

As for `COc1cccc2c1C(=O)c1c(O)c3c(c(O)c1C2=O)C[C@@](O)(C(=O)CO)CC3OC1CC(N(C)CCOCC(OC(C)=O)OC(C)=O)C(O)C(C)O1` (some centres not stated), the GI50 is active: > 0.01 µM. In the case of `CO[C@H]1[C@@H](O)[C@H](O[C@@H]2C[C@H]3CC[C@@H]4[C@H](CC[C@]5(C)[C@@H](C6=CC(=O)OC6)CC[C@]45O)[C@@]3(C)[C@H](OC(C)=O)C2)O[C@@H](C)[C@H]1O`, the GI50 is inactive: 1.87 µM. The same measure for `C[N+](C)(C)CC1CCC(C[N+](C)(C)C)C1=O` (configuration not stated): inactive: 16.7 µM; for `O=C(/C=C/c1cccc2ccccc12)c1ccccc1`: inactive: 12.3 µM.
